In the supplement of paper PMC9446081:
Hit rate of the full screen: of about 39,000 compounds, about 220 (0.56%) showed activity. The list shows a part of the results.

What follows are molecules tested on Escherichia coli K-12 BW25113 (assay: relative growth (OD600 normalised to plate interquartile mean) (fraction); higher = less growth inhibition, active = 0.2 or less). Conditions: 50 µM; LB; incubation time: overnight (16-24 h).
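Further: static incubation at 37 °C against the wild-type strain, values averaged over two biological replicates.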

Structure (SMILES)	relative growth
Cc1ccc(S[C@]2(C(=O)NC(C)C)CC(=O)N(Cc3ccccc3Cl)[C@@H]2c2ccc(CO)cc2I)cc1	inactive: 0.982
C=CC[C@H](CC(=O)N(CCO)Cc1ccccc1)C(=O)N[C@H](COC(=O)[C@H](CC=C)NC(=O)OCC1c2ccccc2-c2ccccc21)C(C)(C)C	inactive: 1.01
C[C@@H]1CN([C@@H](C)CO)C(=O)Cc2cc(NC(=O)CCN3CCOCC3)ccc2O[C@H]1CN(C)S(=O)(=O)c1ccccc1	inactive: 0.982
CC(C)CN(C[C@@H](O)[C@H](Cc1ccccc1)NC(=O)O[C@H]1CO[C@H]2OCC[C@H]21)S(=O)(=O)c1ccc(N)cc1	inactive: 1.02
C[C@H](CO)N1C[C@H](C)[C@H](CN(C)S(=O)(=O)c2cccc(F)c2)Oc2ncc(C#Cc3cccc(F)c3)cc2C1=O	inactive: 1.03
COc1ccc(CN(C)C[C@@H]2OCCCC[C@@H](C)Oc3ccc(NS(=O)(=O)c4ccc(OC)cc4)cc3C(=O)N([C@@H](C)CO)C[C@H]2C)cc1	inactive: 1.01
C[C@H]1CN([C@@H](C)CO)C(=O)Cc2cc(NC(=O)c3ccncc3)ccc2O[C@@H]1CN(C)Cc1ccncc1	inactive: 1.01
C[C@@H]1CN([C@@H](C)CO)S(=O)(=O)c2ccc(C#CC3CC3)cc2O[C@@H]1CN(C)Cc1ccccc1F	inactive: 1.01
CC(C)NC(=O)N(C)C[C@H]1Oc2ccc(NC(=O)CCC(F)(F)F)cc2C(=O)N([C@H](C)CO)C[C@H]1C	inactive: 0.973
C[C@H]1CN([C@@H](C)CO)C(=O)c2cc(NC(=O)Cn3cnnn3)ccc2O[C@H]1CN(C)Cc1ccncc1	inactive: 1
Cn1nc(O)c(=O)[nH]c1=S	inactive: 0.992
COCCOC(=O)N1C(=O)[C@@]2(c3cc(C#CCCO)ccc31)[C@H](C(=O)Nc1nc3ccccc3s1)[C@H]1C(=O)O[C@H](c3ccccc3)[C@H](c3ccccc3)N1[C@@H]2c1ccc(O)cc1	inactive: 1.02
Cc1noc(C)c1S(=O)(=O)Nc1ccc2c(c1)C(=O)N([C@@H](C)CO)C[C@H](C)[C@@H](CN(C)Cc1ccc(C(=O)Nc3ccccc3N)cc1)OCCCC[C@@H](C)O2	inactive: 0.95
CC(O)CC(C)(C)O (stereo not drawn)	inactive: 0.989
CC(C)NC(=O)Nc1ccc2c(c1)C(=O)N([C@H](C)CO)C[C@H](C)[C@H](CN(C)C(=O)Nc1ccccc1)OCCCC[C@@H](C)O2	inactive: 0.995
CCCNC(=O)N[C@H]1CC[C@@H](CC(=O)N2CCN(C)CC2)O[C@@H]1CO	inactive: 1.01
O=C(C[C@H]1CC[C@H]2[C@@H](COC[C@@H](O)CN2S(=O)(=O)c2cccc(Cl)c2)O1)N1CCOCC1	inactive: 1.01
C[C@H]1CN([C@@H](C)CO)C(=O)c2cccc(NC(=O)C3CCOCC3)c2O[C@@H]1CN(C)Cc1ccncc1	inactive: 1.03
C[C@H](CO)N1C[C@H](C)[C@@H](CN(C)Cc2ccc(Oc3ccccc3)cc2)Oc2ccc(NC(=O)Cc3cn(C)c4ccccc34)cc2CC1=O	inactive: 1.04
COc1ccc(C#Cc2cnc3c(c2)C(=O)N([C@@H](C)CO)C[C@H](C)[C@@H](CN(C)C(=O)CN(C)C)O3)cc1	inactive: 1.08

Structure (SMILES)	relative growth
C[C@H](CO)N1C[C@H](C)[C@H](CN(C)S(=O)(=O)c2cn(C)cn2)Oc2ccc(NS(=O)(=O)c3ccccc3)cc2C1=O	inactive: 0.978
C[C@H]1CN([C@@H](C)CO)C(=O)Cc2cc(NC(=O)Cc3cn(C)c4ccccc34)ccc2O[C@H]1CN(C)CC1CCCCC1	inactive: 0.984
Cc1noc(C)c1NC(=O)N(C)C[C@H]1OCCCC[C@H](C)Oc2ccc(NC(=O)CCC(F)(F)F)cc2C(=O)N([C@H](C)CO)C[C@@H]1C	inactive: 0.968
CCS(=O)(=O)N1C[C@]2(CCN(CC2)C(=O)Nc2c(noc2C)C)c2c(n(c3cc(ccc23)OC)C)[C@@H]1CO	inactive: 1.01
C[C@@H]1CN([C@H](C)CO)C(=O)c2cc(NC(=O)Nc3ccc(C(F)(F)F)cc3)ccc2O[C@H]1CN(C)C(=O)Nc1cccc2ccccc12	inactive: 1.02
C=CC[C@@H](CC(=O)NCCO)C(=O)NC[C@H](OC(=O)[C@H](CC=C)CC(=O)OC(C)(C)C)c1ccccc1	inactive: 0.981
C[C@H]1CC[C@@H]2C(C(=O)O[C@H]3[C@H]4O[C@@]4(C)[C@H]4[C@@H](O[C@H]5O[C@@H](CO)[C@@H](O)[C@@H](O)[C@@H]5O)OC=C[C@@]34O)=CO[C@H](O[C@H]3O[C@@H](CO)[C@@H](O)[C@@H](O)[C@@H]3O)[C@@H]21	inactive: 0.986
O=C(C[C@H]1C[C@H]2c3cc(NS(=O)(=O)c4ccc(F)cc4)ccc3O[C@H]2[C@@H](CO)O1)N1CCCCC1	inactive: 1
COCC(=O)N1CC(=O)N2[C@H](CO)[C@H](c3ccc(C#Cc4cccnc4)cc3)[C@H]2C1	inactive: 1.04
C[C@H]1CN([C@@H](C)CO)C(=O)c2cc(NS(=O)(=O)c3ccccc3)ccc2O[C@H]1CN(C)S(=O)(=O)c1ccc(F)cc1	inactive: 0.989
C[C@@H]1CN([C@@H](C)CO)C(=O)Cc2cc(NC(=O)Nc3ccc(C(F)(F)F)cc3)ccc2O[C@H]1CN(C)C(=O)Nc1cccc2ccccc12	inactive: 1.03
CCN1C(=O)[C@H]2[C@H](O)CS[C@H]2C1=O	inactive: 0.94
C[C@@H]1CN([C@@H](C)CO)C(=O)c2cccc(NC(=O)Nc3ccc4c(c3)OCO4)c2O[C@@H]1CN(C)C(=O)Nc1ccc(C(F)(F)F)cc1	inactive: 1.01
COCC(=O)Nc1ccc2c(c1)OC[C@H](C)N(Cc1ccccc1OC)C[C@@H](C)[C@H](OC)CN(C)C2=O	inactive: 0.984
C[C@@H]1CCCCO[C@H](CN(C)C(=O)CCCN(C)C)[C@H](C)CN([C@@H](C)CO)C(=O)c2cc(NS(=O)(=O)c3cn(C)cn3)ccc2O1	inactive: 0.982
Cc1ccc(S(=O)(=O)Nc2ccc3c(c2)C(=O)N([C@@H](C)CO)C[C@@H](C)[C@@H](CN(C)Cc2ccc(C(=O)O)cc2)OCCCC[C@@H](C)O3)cc1	inactive: 0.97
C[C@@H]1CCCCO[C@H](CN(C)C(=O)Nc2ccc(F)cc2)[C@H](C)CN([C@@H](C)CO)C(=O)c2cc(NS(=O)(=O)c3ccccc3)ccc2O1	inactive: 1.05
C[C@@H]1CN([C@H](C)CO)C(=O)c2cccc(NC(=O)Nc3cccc4ccccc34)c2O[C@H]1CN(C)C(=O)Nc1ccc2c(c1)OCO2	inactive: 1.02
CCCC(=O)Nc1ccc2c(c1)C(=O)N(C)C[C@H](OC)[C@H](C)CN(S(=O)(=O)c1cn(C)cn1)[C@@H](C)CO2	inactive: 0.985
Cc1ccc(S(=O)(=O)Nc2cccc3c2O[C@H](CN(C)S(=O)(=O)c2ccc(F)cc2)[C@@H](C)CN([C@H](C)CO)C3=O)cc1	inactive: 1.03

Structure (SMILES)	relative growth
CN1CCN(S(=O)(=O)c2ccc(CN)cc2)CC1	inactive: 1.05
CO[C@@H]1CN(C)C(=O)c2ccc(NS(=O)(=O)c3cn(C)cn3)cc2OC[C@H](C)N(CCC(F)(F)F)C[C@H]1C	inactive: 1.05
COc1ccc2c3c([nH]c2c1)[C@H](CO)N(C[C@]13CN(CCc2ccccc2)C1)C(=O)CN1CCOCC1	inactive: 0.958
COc1ccc(NC(=O)Nc2ccc3c(c2)CC(=O)N([C@H](C)CO)C[C@H](C)[C@@H](CN(C)S(=O)(=O)c2cn(C)cn2)O3)cc1	inactive: 1.01
CN1CCN(C(=O)C[C@@H]2CC[C@@H]3[C@H](COC[C@H](O)CN3C(=O)C3CCCC3)O2)CC1	inactive: 1
COCC#Cc1ccc([C@@H]2[C@@H](CO)N3C(=O)CN(C(=O)CN4CCOCC4)C[C@H]23)cc1	inactive: 1.02
C[C@@H]1CCCCO[C@@H](CN(C)C(=O)NC2CCCCC2)[C@H](C)CN([C@@H](C)CO)C(=O)c2cc(NS(=O)(=O)c3ccc(Cl)cc3)ccc2O1	inactive: 1.02
CN1C(=O)c2cc(NC(=O)C3CCOCC3)ccc2OC[C@@H]2O[C@@H](CC(=O)NCCc3ccncc3)CC[C@@H]21	inactive: 0.978
Cc1ccc(S[C@]2(C(=O)O)CC(=O)N(Cc3ccccc3C(F)(F)F)[C@@H]2c2ccc(CO)cc2I)cc1	inactive: 1
CCOC(=O)c1ccc(O)cc1	inactive: 0.954
O=C(N[C@H]1CC[C@@H](CCNS(=O)(=O)c2ccc(F)cc2)O[C@H]1CO)C1CC1	inactive: 1.01
CO[C@@H]1CN(C)C(=O)c2ccc(NC(=O)c3ccccc3)cc2OC[C@@H](C)N(C(=O)CN(C)C)C[C@@H]1C	inactive: 1.01
CCN(CC)C(=O)C(C#N)=Cc1cc(O)c(O)c([N+](=O)[O-])c1	inactive: 1.1
CO[C@@H]1CN(C)C(=O)c2ccc(NC(=O)C3CCOCC3)cc2OC[C@@H](C)N(CC2CCOCC2)C[C@H]1C	inactive: 1.02
COc1ccccc1CN1C(=O)c2ccccc2[C@](Cc2ccccc2I)(C(=O)NCCCN(C)C)[C@@H]1c1ccc(CO)cc1	inactive: 1
COc1ccc(cc1)CN1C[C@]2(CN(C2)C(=O)Cc2ccncc2)c2c([nH]c3cc(ccc23)OC)[C@H]1CO	inactive: 1
COc1ccccc1CNC(=O)C[C@H]1C[C@H]2c3cc(NS(=O)(=O)c4ccc(F)cc4)ccc3O[C@H]2[C@H](CO)O1	inactive: 0.986
COCCOC(=O)N1C(=O)[C@@]2(c3cc(C#Cc4ccc(OC)cc4)ccc31)[C@H](C(=O)N1CCCCCCC1)[C@H]1C(=O)O[C@H](c3ccccc3)[C@H](c3ccccc3)N1[C@@H]2c1ccc(O)cc1	inactive: 1.09
